Measured values: the supplement of paper PMC11417369
This is one part of the list.

System: PfAP2-HC AP2 domain (GST-tagged)
Test: gcPBM binding intensity (ln(normalized median fluorescence intensity)); higher = stronger DNA binding
Summary of the method: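 Plasmodium falciparum DNA-binding domains carrying a GST tag were expressed in E. coli and applied for 1 h, at about 25 μg on average, to an Agilent 4 × 180k array. The array held primer-extended double-stranded 36-bp intergenic genomic probes together with negative controls, and binding took place in 1× PBS with 1% milk, 0.2 mg/ml BSA, 0.5% salmon testes DNA and 0.03% Triton X-100. An Alexa488 anti-GST antibody detected bound protein, and the array was scanned at 488 nm. Binding intensity is taken as the highest Masliner-normalised natural-log median intensity across replicate spots of either probe orientation.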

| Sequence | gcPBM binding intensity (ln) |
| --- | --- |
| TAATATATATAACAAGTGCAAAAAAATATAGATATT [GTGCAC_site9625] | 9.88 |
| AATAAACAAATAAATAAATAAACAGATAAATAAATC [CACACA_negctrl_site920] | 9.84 |
| AAGCATCCTACTGATTGTACATATATATATATATAT [XGTACX_site2150] | 9.93 |
| GAGAACATTGATACACGTACATAAGTTATAAGTATT [XGTACX_site7665] | 9.71 |
| TTAGGTTATAAATACACACACAAAAGAAAAAAAAAA [CACACA_site5625] | 10.1 |
| AAAAAAAAAAAAAAAGCACACACACCGATGTGTATA [CACACA_site8224] | 10.8 |
| TATATATATATACCTTGTACTTACATTCGCATATAA [XGTACX_site2466] | 9.63 |
| ACATAAATATATGACACACACACATATTATATATAT [CACACA_site3065] | 11.1 |
| CCATTACCATATAAAACACACAAACATACATACATA [CACACA_site5952] | 10.3 |
| GTATAATTATGTGCACGTACATATTTTATTATATAT [XGTACX_site8586] | 9.93 |
| TATATATATATAAAGACACACATCTATAGAATGTTA [CACACA_site2557] | 9.7 |
| TTGTTTTCTTTTTCTTTTCTTTTTCTTTTTTCTTTT [GTGCAC_negctrl_site629] | 9.76 |
| TATTTATATTTATACACACACACAAAAAAAAAAAAA [CACACA_site6817] | 10.2 |
| AATATAGAAATAAATATATCACATTTGTGTTTAAAC [XGTACX_negctrl_site68] | 9.7 |
| TTTATGACTTGAAAAAGTACACATATATTTATGCAA [XGTACX_site5451] | 9.52 |
| TACCAAATTTATTCTTGTACATATATATATATATAT [XGTACX_site4832] | 9.76 |
| ATATATATTTATAGGTGTACAAAATACTATTTTAGG [XGTACX_site8499] | 9.49 |
| AAAAGGAAAAATATCACACATATATATATATATATA [CACACA_site5586] | 9.69 |
| ATTATTATACACAAATGTACATGTGAATTTTTTTTC [XGTACX_site6982] | 9.63 |

| Sequence | gcPBM binding intensity (ln) |
| --- | --- |
| AATAAGTAACAAAATACACACATATAGGTAATTATA [CACACA_site6949] | 10.2 |
| ATATGTTCCGAAGGTTGTACACACATAGAAATATAC [XGTACX_site8227] | 9.93 |
| AAAATATATACAATATGTACATATATATATATATAT [XGTACX_site1898] | 9.68 |
| TTACCCATTCCCTTTACATGCAATTTGTATTAATAA [TGCATGCA_site412] | 9.72 |
| GTACGTTAGATATATACACACATACATAATAAAGAA [CACACA_site7327] | 10.1 |
| TTAATTCTACTTATTACACACATATTAAGCAAAAAT [CACACA_site4921] | 9.63 |
| TTACATGTAAAAGGTACACACATTATGTATACAAAT [CACACA_site1117] | 9.89 |
| TTTTTTTTTTTTTTTTGTCCGTACTGCTTTGTGTTT [XGTACX_site3687] | 9.19 |
| ATGATAAACATGGATACACACATATAGATTGCATAT [CACACA_site6843] | 9.94 |
| ATATATATTAACAATACACACGTGTATACCTTATTG [CACACA_site5258] | 10.1 |
| TTCATCTTAAAATTGGGTACATAACACAAAGTATAA [XGTACX_site1894] | 9.39 |
| ATTTCTCTATCGTAATGTACATAAAAAAGAAAAACA [XGTACX_site6374] | 9.48 |
| TTATTAAATTCATAAGTGCATTTATGATTAATTTTT [GTGCAC_site9749] | 9.57 |
| AATACATACAGACACACACACACATATATATATATA [CACACA_site3558] | 11.5 |
| AAACTTAATATCGGTACACACACAAGATAAGAATTA [CACACA_site8200] | 10.3 |
| CACATACACCCATACACACACATATATATTAAGATA [CACACA_site4459] | 10.2 |
| CTATAAATATTTTATTGTACACACTTTTTATGAATG [XGTACX_site6711] | 9.82 |
| ATATATATATAGTGCACACTTAAGAATATAAAGAGG [CACACA_site1151] | 9.91 |
| AAAATTTTTAGTTATACACACAACATAGAAAATATT [CACACA_site328] | 9.78 |

| Sequence | gcPBM binding intensity (ln) |
| --- | --- |
| CTTAATTTAATGAAATGTACATATAAAAATATTATA [XGTACX_site3303] | 9.45 |
| TTTGATCGATGGATTTAACACACAAAAAAAAAAAAA [CACACA_site9279] | 9.59 |
| GTAAGAAACAGACACACACACATATATATATATATA [CACACA_site794] | 10.4 |
| GAACAGTTTGTTTAGTGTACTTTTTTTTTTTTTTTT [XGTACX_site8881] | 9.48 |
| AATAATTTTATCGGTACACACTGTATGCATAATATT [CACACA_site4364] | 9.84 |
| CCTATAAATGCATTCACACATATATATTTATATTAT [CACACA_site6086] | 9.83 |
| ATGTACAAAATAAGCACACACAAAAAAAAAAAAAAT [CACACA_site2998] | 10.4 |
| TCAAAAATAAAGATCACACATATATATATATATATA [CACACA_site4381] | 9.73 |
| TCTAATTACAAAAACATACACACAAAAAAAAAAAAA [CACACA_site3783] | 10.1 |
| AAATAAAAACCATATCGTACAAAAATTTTTGTATTT [XGTACX_site7497] | 9.68 |
| ATATATATATATATATGTACTTAAAAATTTGTTTTG [XGTACX_site1514] | 9.5 |
| AAGTCAATTTTTTTTTTTTTTTTTTAACTTATTAAT [TGCATGCA_negctrl_site14] | 9.39 |
| GATCACTGAATAAAGGCACACATCTGACTAATTTTT [CACACA_site66] | 9.78 |
| TCCTTAAAAATCTAAAAAGAAAAAAACATATATTTT [GTGCAC_negctrl_site123] | 9.26 |
| TATACCTATAAATACACACACATATATAAATATGTA [CACACA_site6625] | 9.96 |
| ATTATTATATATATAACACACATAATTATATACTTA [CACACA_site1563] | 9.8 |
| TTAAAAAGTGCGTAGTGTACTAATATAAATAATACA [XGTACX_site2922] | 9.92 |
| TGAATAAATATATATACACACCCATATATATATATA [CACACA_site8833] | 9.89 |
